# Assay results reported in PubChem BioAssay AID1963576 (National Center for Advancing Translational Sciences (NCATS), 2024).
# In all, about 46,000 compounds went through this assay and about 60 (0.1%) were called active. Another 3% or so got no clear call; they are omitted. Calls come from the whole dose curve; as a rule, active = well fitted inhibition curve with a large enough effect; inconclusive = small, poorly fitted or top-dose-only effect; inactive = no such curve, though single readings can be large or run the other way. The list shows a part of the results.
# Assay: Primary qHTS assay for Inhibitors of ovarian cancer metastasis using an organotypic tumor microenvironment (TME) model.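 For activity change, negative = inhibition: plate controls were DMSO wells for no effect and tomatine positive control wells for full effect.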 Note: nearly all actives have a fitted effect of over 65% in size.
# Conditions: SKOV3ip1-GFP adhesion/invasion on 3D omental model, fluorescence; series mostly up to 45.8 µM; activity change, negative = inhibition: at the top concentration
# Outline: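 Adhesion/invasion was scored as fixed GFP-labeled SKOV3ip1 cell counts (488/509 nm), normalized to DMSO and tomatine controls. Cancer cells in serum-free medium, with four compound doses (0.36-46 umol/L), sat 2 hr at RT then 16 hr at 37 C on a 48 hr fibroblast/mesothelial/ECM culture.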
SMILES,"activity change, negative = inhibition",outcome
COc1ccc(-c2nc3ccc(Cl)cn3c2Nc2ccc(C)cc2)cc1,inactive: -0.191%,–
COc1ccc(N2CC(NC(=O)C(=O)c3c(C)[nH]c4ccccc34)CC2=O)cc1 (stereo not given),inactive: 4.37%,–
COc1cc(OC)c(NC(=O)Cn2cnc3sc(C)c(S(=O)(=O)N4CCC(C)CC4)c3c2=O)cc1Cl,inactive: 6.17%,–
O=C(CSc1nc(=O)n(Cc2ccco2)c2c1CCC2)NCc1ccc(Cl)cc1,inactive: -15.4%,–
Cc1ccc(NC(=O)CCn2c(=O)c3cccn3c3ccccc32)cc1Cl,–,inactive
CCN(Cc1ccccc1)C(=O)Cn1c(=O)n(-c2ccc(Cl)c(Cl)c2)c(=O)c2c(C)c(C(=O)N(C)C)sc21,inactive: -4.23%,–
COc1ccccc1CNC(=O)CSc1nc(=O)[nH]c2c1CCCC2,inactive: 20.4%,–
Cc1ccc(C(=O)N2CCN(Cc3cc(=O)n4nc(-c5ccccc5)sc4n3)CC2)cc1,inactive: -1.48%,–
Cc1cc(NC(=O)Nc2nnc(N3CCCCC3)s2)ccc1Br,inactive: -3.2%,–
Cc1cc(C)n(-c2nc3ccccc3nc2Nc2cc(Cl)ccc2C)n1,inactive: -1.18%,–
Cc1cc(C)c2nc(N(Cc3cccnc3)C(=O)Cc3ccccc3)sc2c1,inactive: 14.8%,–
CCOc1ccc(CNC(=O)c2ccc3c(c2)nc2n3CCCCC2)cc1,–,inactive
COc1ccc(C(=O)Nc2ccc3oc(-c4cccnc4)nc3c2)cc1OC,inactive: 15.5%,–
COCCn1c(=O)[nH]c2cc(C(=O)Nc3ccc(OC)cc3)ccc2c1=O,inactive: -8.31%,–
CCCCCn1c(=O)[nH]c2cc(C(=O)NC(C)CC)ccc2c1=O (stereo not given),–,inactive
COc1ccc(CCNC(=O)c2cc(=O)c3ccc(C)cc3o2)cc1OC,inactive: -0.598%,–
Cc1cccc(Cn2c(COc3ccccc3)nc3ccccc32)c1,–,inactive
CCn1c2ccccc2c2cc(NC(=O)COc3cc(C)ccc3C)ccc21,inactive: 6.59%,–
O=C(COC(=O)c1cccc(NC(=O)c2ccc(Br)cc2)c1)c1ccc(Cl)cc1,inactive: -19.2%,–
CC(C)(C)c1ccc(OCCOCCn2c(-c3ccc(Cl)cc3)nc3ccccc3c2=O)cc1,inactive: -8.65%,–
CC(C)Oc1ccc(CNC(=O)C2CCN(Cc3cc4ccccc4n3Cc3ccccc3)CC2)cc1,inactive: -2.41%,–
CCc1cnc2c(c1SCC(=O)Nc1ccc(C(=O)OC)cc1)c(=O)n(C)c(=O)n2C,inactive: -5.84%,–
Cc1ccc2c(c1)cc(C(=O)NCc1ccccc1C)n2C,inactive: 3.48%,–
Cc1cc(C)c(S(=O)(=O)NCC(c2ccco2)S(=O)(=O)c2cccs2)c(C)c1 (stereo not given),inactive: -3.84%,–

SMILES,"activity change, negative = inhibition",outcome
CC1CCc2onc(C(=O)N3CCN(c4cccc(Cl)c4)CC3)c2C1 (stereo not given),inactive: -15.3%,–
CC(C)Oc1ccc(CNC(=O)c2ccc(NC(=O)N3CC(C)Sc4ccccc43)cc2)cc1 (stereo not given),inactive: -4.61%,–
O=C(/C=C/c1ccccc1)Nc1nc2n(n1)C(c1ccc(F)cc1)C=C(c1ccccc1)N2 (stereo not given),inactive: -0.574%,–
CCc1nn2c(=O)c(S(=O)(=O)Nc3ccc(C)c(C)c3)c(C)nc2s1,inactive: 9.48%,–
CCOC(=O)CNC(=O)c1cc2c(=O)n3cccc(C)c3nc2n1C,–,inactive
CCOCCc1nn2c(=O)cc(COC(=O)c3ccc(NC(=O)C(C)(C)C)cc3)nc2s1,inactive: -6.58%,–
COc1ccc(NC(=O)c2nc(-c3ccc(C)cc3)n3c2CCCCC3)c(OC)c1,inactive: 9.32%,–
CCc1cccc(C)c1NC(=O)c1cnn(-c2ccc(OC)cc2)c1C1CCN(C(=O)OC(C)(C)C)CC1,inactive: -8.46%,–
Cc1ccc(SCC(=O)Nc2ccc3oc(-c4ccccc4F)nc3c2)cc1,inactive: -1.11%,–
CCOC(=O)c1ccccc1NC(=O)c1cnc(N2CCOCC2)c2ccccc12,inactive: -18.7%,–
Cc1cc2oc(C(=O)N(Cc3ccco3)Cc3ccccc3Cl)c(C)c2cc1C,–,inactive
O=C(NCc1cccs1)c1ccc(CSc2nc3ccncc3n2Cc2ccccc2F)cc1,inactive: -9.66%,–
CCC(=O)N1CCc2cc(S(=O)(=O)NC(C(=O)NCCc3cccc(C)c3)C(C)C)ccc21 (stereo not given),inactive: -5.33%,–
CN(Cc1ccco1)S(=O)(=O)c1nnc(NC(=O)c2ccccc2Cl)s1,inactive: 7.36%,–
COc1ccc(CNC(=O)Cn2c(-c3ccccc3)cc(C(C)=O)c2C)cc1OC,–,inactive
CCN(CC)c1nn2c(=O)c(C(=O)NCc3ccc(N(C)C)cc3)cnc2s1,inactive: 6.53%,–
COc1ccc(N2CC(NC(=O)/C=C\c3ccccc3)CC2=O)cc1OC (stereo not given),–,inactive
Cc1nn(C)c(C)c1CCNC(=O)Nc1ccccc1C(F)(F)F,inactive: -7.53%,–
CCc1ccccc1N(C)C(=O)c1sc2nc3n(c(=O)c2c1C)CCCCC3,inactive: -0.909%,–
COc1ccccc1CNC(=O)C1CCN(S(=O)(=O)c2cn(C)cn2)CC1,inactive: -0.253%,–
O=C(NCCc1csc(-c2ccc(F)cc2)n1)c1cccc(F)c1,inactive: -3.95%,–
Cc1ccc(C2c3[nH]c4ccccc4c3CCN2C(=O)CSCc2ccc(F)cc2)cc1 (stereo not given),inactive: 2.2%,–
COc1cc(Cl)c(C)cc1Nc1nc2ccccc2n2cnnc12,inactive: 0.637%,–
CC1CCCN(CCCNC(=O)c2cc3c(Cl)nc4ccccc4c3s2)C1 (stereo not given),inactive: -6.12%,–

SMILES,"activity change, negative = inhibition",outcome
COc1ccc(C(=O)CCC(=O)Nc2ccc(C)c(Cl)c2)cc1,inactive: -24.2%,–
Cc1ccc(C)c(CSc2nnc3[nH]c(=O)cc(-c4ccccc4)n23)c1,–,inactive
COCc1cc(C)nc2sc3c(=O)n(-c4ccccc4C(F)(F)F)nnc3c12,inactive: -3.41%,–
CCc1ccccc1NC(=O)c1sc(-n2nc(C)c(Cc3ccccc3)c2C)nc1C,–,inactive
COc1ccc(CNC(=O)C2CCN(S(=O)(=O)c3ccc4c(c3)CCCN4C(C)=O)CC2)cc1,inactive: -6.71%,–
Cc1cccc(C)c1-n1ncc(C(=O)N2CCN(c3ncccn3)CC2)c1C1CCN(C(=O)OC(C)(C)C)CC1,inactive: 7.4%,–
Cc1cccc(NC(=O)C2CCN(S(=O)(=O)c3ccc4c(c3)CCCN4C(=O)C3CCC3)CC2)c1,inactive: 3.51%,–
CCCCCCCc1ccc(CCc2cccc(O)c2C(=O)O)cc1,inactive: 11.3%,–
COCCCn1c(=O)c2sccc2n2c(CCCC(=O)NC3CCC(C)CC3)nnc12 (stereo not given),inactive: -0.231%,–
CCOC(=O)c1c(S(=O)(=O)NCC(=O)NCc2ccccc2Cl)c(C)n(C)c1C,–,inactive
CCCn1cc(S(=O)(=O)c2cc(C)ccc2C)c(=O)c2cc(F)c(N3CCN(CC)CC3)cc21,inactive: -10.2%,–
CCCN1CCN(CCCNC(=O)Cn2nc(C)n3c(cc4c(OC)cccc43)c2=O)CC1,inactive: -9.67%,–
CC(C)(N)C(=O)N[C@H](COCc1ccccc1)C(=O)N1CCC2(CC1)CN(S(C)(=O)=O)c1ccccc12,inactive: 24.4%,–
Cc1ccc(NC(=O)CSc2nc3ccc(NC(=O)CCc4ccccc4)cc3s2)cc1,inactive: 4.78%,–
CCN1CCN(Cc2c(O)ccc3c(=O)c(Oc4ccccc4C(C)C)c(C(F)(F)F)oc23)CC1,–,inactive
COc1ccc(NC(=O)CSc2cn(CCNC(=O)c3c(F)cccc3F)c3ccccc23)cc1,–,inactive
COc1cc(NC(=O)CSc2nc(-c3ccc(C(C)C)cc3)no2)cc(OC)c1,inactive: -5.41%,–
COc1ccc(C(=O)N(Cc2ccc(N(C)C)cc2)CC2CCCO2)cc1 (stereo not given),inactive: -4.69%,–
COc1ccc(C2=Nc3ccc(OC(F)(F)F)cc3NC(c3cccnc3)=N2)cc1,–,inactive
COC(=O)C=CC(=O)OC,inactive: 14.6%,–
Cc1ccc(C)c(N2CCN(S(=O)(=O)c3cn(C)c(C)n3)CC2)c1,inactive: -10.8%,–
CCC(C)n1c(=N)c(C(=O)NC2CCCCC2)cc2c(=O)n3ccccc3nc21 (stereo not given),inactive: 30%,–
CC(=O)Nc1ccc2nc(NC(=O)CS(=O)(=O)c3ccc(C)cc3)sc2c1,inactive: -5.38%,–
CCN(C(=O)Cn1c(=O)n(Cc2ccccc2)c(=O)c2c1c1cc(OC)ccc1n2C)c1ccccc1,–,inactive

SMILES,"activity change, negative = inhibition",outcome
Cc1ccc(NC(=O)Cn2cnc3c2c(=O)n(C)c(=O)n3C)cc1C,inactive: 2.96%,–
COc1cc(Cl)c(C)cc1NC(c1ccccc1)c1nnc(-c2ccccc2Cl)o1 (stereo not given),inactive: -3.98%,–
Cc1ccccc1CNC(=O)c1ccc2nc(C(C)C)oc2c1,inactive: 1.09%,–
COc1ccc(-c2noc(-c3ccc(NC4CCCC4)c([N+](=O)[O-])c3)n2)cc1OC,–,inactive
Cc1ccc(CNC(=O)c2cc3ccc4cccnc4c3[nH]2)cc1,inactive: 19.5%,–
O=C(c1cccc(Cl)c1)N1c2ncnn2C2(CCCCC2)[C@@H]2CCCC[C@@H]21,inactive: -0.643%,–
Cc1ccc(Cl)cc1NC(=O)CCc1c(C)nc2c3cccnc3nn2c1C,inactive: -0.176%,–
Cc1ccc2c(=O)cc(C(=O)Nc3sc4c(c3C(=O)NCC3CCCO3)CCCC4)oc2c1C (stereo not given),inactive: 7.73%,–
CC(C)(C)OC(=O)N1CCC(c2c(C(=O)NCCN3CCOCC3)cnn2-c2ccc(F)cc2)CC1,inactive: -5.26%,–
COc1ccc(-c2ccc3c(N)c(C(=O)NCc4ccc(C)cc4)sc3n2)cc1,inactive: 28.9%,–
Cc1ccc2c(c1)N(C(=O)N1CCC(C(=O)NCCc3ccccc3)CC1)CC(C)O2 (stereo not given),inactive: -34.1%,–
COc1ccc(N2Cc3cccc(C(=O)Nc4ccc(Cl)cc4)c3C2=O)cc1,inactive: 1.98%,–
CCC(C=C[C@@H]1OC(=O)C=C[C@H]1C)=C[C@H](C)CC=CC(C)=C[C@@H](C)C(=O)[C@@H](C)[C@H](O)[C@@H](C)CC(C)=CC(=O)O,inactive: -12.7% [at 1.72 µM],–
CCOc1ccc(-c2nonc2NC(=O)c2oc3cc(C)ccc3c2C)cc1OCC,inactive: -8%,–
O=C(COc1ccc(F)cc1)Nc1nnc(SCc2cc(=O)n3ccccc3n2)s1,inactive: 8.8%,–
Cc1ccc(CN(Cc2ccco2)C(=O)COc2cccc(C)c2C)o1,inactive: -8.34%,–
CCOC(=O)C1CCCN(C(=O)c2ccc3c(c2)sc2nc(-c4ccc(C)cc4C)cn23)C1 (stereo not given),inactive: -2.3%,–
Cc1cc(Cl)ccc1NC(=O)CN1C(=O)COc2ccc(S(=O)(=O)Nc3ccccc3)cc21,–,inactive
COc1cccc(Cn2c(SCc3ccc(C(=O)N4CCCCC4)cc3)nc3ccncc32)c1,inactive: 12.5%,–
O=C(Nc1nc2n(n1)C(c1ccccc1)C=C(c1ccc(Cl)cc1)N2)c1ccco1 (stereo not given),inactive: -7.42%,–
O=C(COc1ccc([N+](=O)[O-])cc1)N1CCC(c2nc3ccccc3s2)CC1,inactive: -23.9%,–
CC(C)(CC(=O)OCC(=O)Nc1ccccc1F)CC1=NS(=O)(=O)c2ccccc2N1,–,inactive
CCOC(=O)Cn1c(=O)c2c(nc(N3CCOCC3)n2Cc2ccccc2)n(C)c1=O,–,inactive
